Laboratory results reported in a compilation of properties of binary mixtures (doi:10.1021/je900865y).
Some of these densities may be calculated back from excess volumes.

Assay: xn = mol fraction of the nth substance listed
Conditions: 101 kPa

CCCC[n+]1ccn(C)c1.N[C@@H](CCC(=O)O)C(=O)[O-] + O
mass density [kg/m3]
Conditions | x2 = 0.0032 | x2 = 0.0156 | x2 = 0.0367 | x2 = 0.0541 | x2 = 0.1107 | x2 = 0.1439 | x2 = 0.1451 | x2 = 0.1613 | x2 = 0.1759
308.15 K | – | – | – | – | 1183.8 | 1181.1 | 1180.8 | 1179.2 | 1177.9
313.15 K | – | – | – | – | 1181.2 | 1178.6 | 1178.2 | – | 1175.6
318.15 K | 1186.2 | 1185.3 | 1183.8 | 1182.3 | 1178.2 | 1175.5 | 1175.1 | – | 1172.6
323.15 K | 1184.1 | 1183.2 | 1181.6 | 1180.2 | 1176.3 | 1174 | 1173.5 | 1172.3 | 1171.2
328.15 K | 1181.9 | 1181 | 1179.5 | 1178.4 | 1174.8 | 1172.1 | 1171.9 | – | 1169.8
333.15 K | 1179.4 | 1178.4 | 1177.3 | 1176 | 1172.3 | 1170.2 | 1170 | 1169.1 | 1167.4
338.15 K | 1177 | 1176.1 | 1175 | 1173.9 | 1170.8 | 1168.4 | – | 1167.1 | 1166
343.15 K | – | – | 1173.3 | 1172.6 | 1169.5 | – | 1166.9 | – | 1165
